Measured values from publication PMC4336329 (PLoS ONE, 2015).
About 2,200 (0.71%) of roughly 310,000 compounds showed an effect of 50% or more. The effect is printed as a negative number. The list shows a part of the results.

target: human ether-à-go-go-related gene (hERG) potassium channel (human, UniProt Q12809); assay: primary screen, population patch clamp on CHO cells stably expressing hERG
Sequence (Q12809 whole entry, looked up): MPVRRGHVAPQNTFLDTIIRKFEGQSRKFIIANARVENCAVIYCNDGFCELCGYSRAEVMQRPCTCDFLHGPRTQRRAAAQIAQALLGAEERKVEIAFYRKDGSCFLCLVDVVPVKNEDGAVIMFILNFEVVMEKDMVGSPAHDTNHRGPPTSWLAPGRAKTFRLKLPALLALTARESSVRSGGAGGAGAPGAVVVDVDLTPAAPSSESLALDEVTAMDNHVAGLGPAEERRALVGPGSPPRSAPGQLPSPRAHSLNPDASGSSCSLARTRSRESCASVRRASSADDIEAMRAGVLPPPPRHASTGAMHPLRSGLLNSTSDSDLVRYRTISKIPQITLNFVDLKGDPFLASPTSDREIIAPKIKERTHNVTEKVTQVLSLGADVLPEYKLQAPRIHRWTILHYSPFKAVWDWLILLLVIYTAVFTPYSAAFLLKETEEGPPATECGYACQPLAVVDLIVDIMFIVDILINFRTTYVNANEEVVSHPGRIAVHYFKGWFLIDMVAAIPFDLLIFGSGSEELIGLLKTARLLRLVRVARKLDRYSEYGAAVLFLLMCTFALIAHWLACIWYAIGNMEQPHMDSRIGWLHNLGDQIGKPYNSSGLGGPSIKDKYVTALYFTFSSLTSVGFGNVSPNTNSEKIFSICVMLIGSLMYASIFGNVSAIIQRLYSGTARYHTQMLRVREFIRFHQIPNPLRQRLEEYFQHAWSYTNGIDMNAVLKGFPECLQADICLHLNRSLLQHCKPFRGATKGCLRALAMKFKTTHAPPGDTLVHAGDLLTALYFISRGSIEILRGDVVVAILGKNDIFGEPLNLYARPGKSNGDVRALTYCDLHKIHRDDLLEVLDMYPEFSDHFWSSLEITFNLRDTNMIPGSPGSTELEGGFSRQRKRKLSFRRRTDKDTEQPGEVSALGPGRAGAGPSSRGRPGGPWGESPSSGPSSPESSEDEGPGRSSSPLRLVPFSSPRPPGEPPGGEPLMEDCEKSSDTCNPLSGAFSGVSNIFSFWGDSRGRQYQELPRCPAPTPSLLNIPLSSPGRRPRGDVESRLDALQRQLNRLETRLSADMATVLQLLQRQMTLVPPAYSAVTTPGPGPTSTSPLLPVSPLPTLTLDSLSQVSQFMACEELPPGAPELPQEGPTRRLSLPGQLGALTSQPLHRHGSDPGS

SMILES | hERG current change (%, negative = inhibition) at 1uM [%]
CCOC(=O)N1CCC(NC(=O)C2CCN(S(=O)(=O)c3cccc4cccnc34)CC2)CC1 | 3.97
CN1C[C@@H]2C(c3ccccc3)C3(c4ccc(C#N)cc4)CC2(C3)[C@H]1c1ccccc1 (stereo partly shown) | 12.7
CCC1(C)NC(=O)N(CC(=O)N2CCN(c3cccc(Cl)c3)CC2)C1=O (stereo not shown) | 10.7
O=C(NCCO)/C(=C/c1ccc(Br)cc1)NC(=O)c1cccs1 | -8.3
CN1CCN(C(=O)c2cc3ccccc3oc2=O)CC1 | 8.34
CC1=C(C)CS(=O)N(S(=O)(=O)c2ccc(Cl)cc2)C1 (stereo not shown) | 9.09
CN(C)S(=O)(=O)c1cccc(NC(=O)CN2C(=O)NC(Cc3ccccc3)C2=O)c1 (stereo not shown) | 5.03
CSc1nnc2c3cc(C)ccc3n(Cc3ccccc3)c2n1 | 10.3
C1N2CN3CN1CN(C2)C3 | 6.19
Cc1cccn2c(=O)c3c(nc12)N1CCCCCC1C1(C3)C(=O)N(C)C(=O)N(C)C1=O (stereo not shown) | 12.6
CCC(c1nnnn1CCc1ccccc1)N1CCN(c2ccc(OC)cc2)CC1 (stereo not shown) | 14.5
CC(=O)Nc1c(O)nc(C)[nH]c1=O | 9.53
CC(=O)c1sc(NCc2ccc(C)cc2)nc1C | 10.4
O=C(C1CCCN(S(=O)(=O)Cc2ccccc2)C1)N1CCC(Cc2ccccc2)CC1 (stereo not shown) | 9.04
Cc1nc(NCC2CCCO2)nc2c1C(=O)CC(C)C2 (stereo not shown) | -3.04
Cc1ccc(NC(=O)C2CCCN(S(=O)(=O)c3cccc4nonc34)C2)cc1 (stereo not shown) | 12.1
COc1ccc(NS(=O)(=O)c2ccc(O)c(NC(=O)c3ccc(S(=O)(=O)N4CCCCCC4)cc3)c2)cc1 | 3.32
Cc1nn2c(-c3ccc(S(=O)(=O)N4CCN(CCO)CC4)o3)nnc2c2ccccc12 | 24
CCNC(=O)NNC(=O)C1CC(c2cccnc2)=NO1 (stereo not shown) | 6.79
O=C(c1nc2ccccn2c1CNCCn1ccc2ccccc21)N1CCOCC1 | 17.6

SMILES | hERG current change (%, negative = inhibition) at 1uM [%]
Cn1c(=O)oc2cc(S(=O)(=O)Nc3ccccc3)ccc21 | 10.4
Oc1c(Cl)cc(Cl)cc1CNc1nc2ccccc2[nH]1 | 12.6
Cc1ccc(C)c(Sc2ccc(NC(=O)CCl)cc2)c1 | 13.6
Cc1c(Br)c(C(F)(F)F)nn1CC(=O)NCC1CCCO1 (stereo not shown) | 0.408
Cc1ccc(-c2nc3ccccc3[nH]c2=O)cc1 | 6.32
Cc1cc2c3c([nH]c2cc1S(=O)(=O)N1CCC2(CC1)OCCO2)CCCC3=O | 8.36
CC(C)Oc1ccc(/C=N/NC(=O)c2nnn(-c3nonc3N)c2CN(C)c2ccccc2)cc1 | 9.88
CC(=O)Nc1ccc(S(=O)(=O)N(C)c2ccc(OCC(=O)OCC(=O)Nc3ccc(OC(F)F)cc3)cc2)cc1 | 5.6
CCC(C)NCCOCCOc1ccc(Br)cc1.O=C(O)C(=O)O (stereo not shown) | 1.3
COc1ccc(S(=O)(=O)N2CCCCCC2)cc1C(=O)N(C)Cc1ccc(OC)c(OC)c1OC | -4.49
COC(=O)c1ccccc1NC(=O)NCc1ccc2c(c1)OCO2 | 3.19
COc1ccc(CNS(=O)(=O)c2ccc3c(c2)N(C)CCO3)cc1 | 8.48
Cc1nnc(NN)n(N)c1=O | 6.71
Cc1ccc(/C=N/NC(=O)c2nnn(-c3nonc3N)c2-c2ccccc2)o1 | 20.8
CC1=NN(c2nc(-c3ccccc3)cs2)C(=O)C1N=Nc1ccccc1 (stereo not shown) | 7.8
Cc1noc(C)c1S(=O)(=O)NCCCN1CCN(Cc2ccccc2)CC1 | 5.91
O=c1[nH]c(=O)n(C2OC(CO)C(O)C2O)cc1Br (stereo not shown) | 18.7
CC(=O)C1=C(C)NC(=O)CC1c1ccc(F)cc1 (stereo not shown) | 3.49
COc1ccc(S(=O)(=O)NCc2cccnc2)cc1C | 13.5
CC12CCC(C(=O)[O-])(C/C1=N\O)C2(C)C.[Na+] (stereo not shown) | 19.2

SMILES | hERG current change (%, negative = inhibition) at 1uM [%]
O=C(Nc1ccc2ccccc2c1)c1nn(C23CC4CC(CC(C4)C2)C3)cc1Br | 13.2
O=C(C1CC(c2cccc(Br)c2)=NO1)N1CCc2ccccc2C1 (stereo not shown) | 9.23
CCOC(=O)c1ccc(NC(=O)NCc2ccn(CC)n2)cc1 | 1.47
CCn1c(=N)n(CC(O)COc2ccc(C)cc2)c2ccccc21.Cl (stereo not shown) | -16.8
O=C(c1ccc([N+](=O)[O-])cc1)N1CCSC1c1ccccc1 (stereo not shown) | -6.02
Cc1cccc(NC(=S)NCCN2CCOCC2)c1C | 3.59
COc1ccc(CNC(=O)C2CCCN2CCc2ccccc2)cc1OC (stereo not shown) | -4.95
Fc1ccccc1N1CCN(CCCNc2ccc3nncn3n2)CC1 | 7.34
NC1=NC(=O)/C(=C/c2cccc(F)c2)S1 | 20.6
N#CC1=C(SCc2ccccc2)NC(=O)CC1c1cccc(O)c1 (stereo not shown) | 4.28
CCCn1c(=O)c2ccccc2n2c(SCC(=O)/C(C#N)=C(\C)N)nnc12 | 6.39
Nc1cccc(C(=O)Nc2cccc3ncccc23)c1 | 18.1
CCOc1cc(C(=O)Nc2ccccc2N2CCN(S(C)(=O)=O)CC2)cc(OCC)c1OCC | -10.1
COc1cc2nc(Nc3cccc(F)c3)nc(N)c2cc1OC.Cl | 5.98
Cc1cc2nc(N3CCN(C(=O)c4cccs4)CC3)sc2cc1C | 5.28
COc1ccc(Cl)cc1NC(=O)NCC1CCN(Cc2ccccc2F)CC1 | 12.9
CC(C)(C)c1ccccc1NC(=O)c1ccc2c(c1)SC1=NS(=O)(=O)CCN12 | 11
COc1cccc(N2CCN(C3CC(=O)N(c4ccc(Cl)c(Cl)c4)C3=O)CC2)c1 (stereo not shown) | 11
